According to publication PMC4336329 (PLoS ONE, 2015):
Screen size: about 310,000 compounds; about 14,000 (4.5%) showed an effect of 50% or more. Effects have a minus sign here. The list shows a part of the results.

molecular target: human ether-à-go-go-related gene (hERG) potassium channel (human, UniProt Q12809); experiment: primary screen, population patch clamp on CHO cells stably expressing hERG
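Note: peak tail current of the secondary pulse compared with the same well before compound.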

human ether-à-go-go-related gene (hERG) potassium channel, sequence (Q12809 whole entry, looked up): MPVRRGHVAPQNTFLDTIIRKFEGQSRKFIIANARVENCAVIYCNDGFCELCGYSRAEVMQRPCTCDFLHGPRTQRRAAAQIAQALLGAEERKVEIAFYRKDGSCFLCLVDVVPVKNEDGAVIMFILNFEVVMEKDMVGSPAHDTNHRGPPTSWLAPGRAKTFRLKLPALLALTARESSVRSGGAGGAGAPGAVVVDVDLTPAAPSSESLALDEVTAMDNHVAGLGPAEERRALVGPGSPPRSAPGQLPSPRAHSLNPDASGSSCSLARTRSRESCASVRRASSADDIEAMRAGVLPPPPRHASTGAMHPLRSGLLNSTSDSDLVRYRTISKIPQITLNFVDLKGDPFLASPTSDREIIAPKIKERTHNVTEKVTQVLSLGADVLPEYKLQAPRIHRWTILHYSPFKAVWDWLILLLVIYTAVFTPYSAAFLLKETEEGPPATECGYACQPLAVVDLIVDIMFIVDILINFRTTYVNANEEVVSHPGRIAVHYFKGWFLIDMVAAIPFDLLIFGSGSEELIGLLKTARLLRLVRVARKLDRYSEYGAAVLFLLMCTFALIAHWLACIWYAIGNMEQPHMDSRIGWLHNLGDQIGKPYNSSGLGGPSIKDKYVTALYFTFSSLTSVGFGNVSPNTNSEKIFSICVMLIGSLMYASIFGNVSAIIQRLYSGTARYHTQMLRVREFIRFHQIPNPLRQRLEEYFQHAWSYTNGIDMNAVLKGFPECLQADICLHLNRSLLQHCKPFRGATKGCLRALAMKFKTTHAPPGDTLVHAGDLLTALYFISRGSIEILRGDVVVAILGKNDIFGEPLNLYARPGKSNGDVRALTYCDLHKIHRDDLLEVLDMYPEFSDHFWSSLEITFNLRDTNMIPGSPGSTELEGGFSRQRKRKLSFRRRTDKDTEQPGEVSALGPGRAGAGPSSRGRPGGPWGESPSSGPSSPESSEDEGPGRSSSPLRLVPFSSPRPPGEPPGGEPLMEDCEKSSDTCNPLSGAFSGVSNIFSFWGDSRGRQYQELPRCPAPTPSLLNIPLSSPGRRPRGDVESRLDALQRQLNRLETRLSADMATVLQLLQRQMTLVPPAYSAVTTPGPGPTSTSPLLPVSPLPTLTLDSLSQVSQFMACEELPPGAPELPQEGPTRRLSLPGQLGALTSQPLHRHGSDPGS

Row | Structure (SMILES) | hERG current change (%, negative = inhibition) at 10uM
1 | CCCNC(=O)c1ccc2c(=O)c(O)c(-c3ccc(OC)cc3)[nH]c2c1 | 14.3%
2 | CCC(C)NC(=O)C(Cc1ccccc1)n1cccc1 (stereo not shown) | 0.373%
3 | CN1CCN(c2ccc([N+](=O)[O-])c3no[n+]([O-])c23)CC1 | -47.1%
4 | COc1cccc(NC(=O)CN(C)C(=O)CC(C)c2ccccc2)c1 (stereo not shown) | 16.5%
5 | Cc1c(Cl)cccc1NC(=O)CNC(=O)c1cn(-c2ccccc2)nc1-c1cccnc1 | -39.5%
6 | O=C(/C=C/c1ccc(Cl)cc1Cl)NC(=S)Nc1ccccn1 | 16.9%
7 | CSc1ccc(C(=S)N2CCN(CCO)CC2)cc1 | -13.9%
8 | Cc1ccc(S(=O)(=O)Nc2ncc(C(F)(F)F)cc2Cl)cc1 | 15.9%
9 | Cc1ccccc1NS(=O)(=O)c1ccc(NC(=O)c2ccco2)cc1 | 7.68%
10 | Cn1c(O)c(/C=N/N2CCOCC2)c(=O)n(C)c1=S | 3.82%
11 | CCOC(=O)c1ccc(CNC(=O)CSc2nnc(-c3ccncc3)o2)cc1 | -1.31%
12 | CNc1nc(Sc2ccc(C)cc2)cc(C(F)(F)F)n1 | 15.5%
13 | Cc1cc(NCCN2CCOCC2)n2c(nc3ccccc32)c1C#N | -6.09%
14 | Cc1cccc(C)c1NC(=O)CNC(=O)c1ccc(N2CCCC2)c([N+](=O)[O-])c1 | -25.7%
15 | CCOc1ccc(NC2c3ccccc3C(=O)N2c2ccc(Cl)cn2)cc1 (stereo not shown) | 19.2%
16 | CC(=O)N1CCc2c(sc(NC(=O)C3COc4ccccc4O3)c2C(N)=O)C1 (stereo not shown) | -20%
17 | Cn1c(=O)[nH]c(=O)c2c1[nH]c(=S)n2Cc1ccc(Cl)cc1 | 23.3%
18 | COc1ccccc1N1CCN(/N=C\c2cccnc2)CC1.Cl | -0.26%
19 | Cc1ccc(-n2nnnc2SCC(=O)c2cc(C)n(CC3CCCO3)c2C)cc1 (stereo not shown) | 3.39%
20 | COc1ccc(CC(=O)O/N=C(\N)c2ccc(OC)cc2)cc1 | -12.9%
21 | COc1cc2cc(C(=O)N[C@@H](Cc3ccccc3)C(=O)O)n(C)c2c(OC)c1OC | 16%
22 | CCN(c1ccccc1)S(=O)(=O)c1ccc(C(C(=O)OC)C(=O)OC)c([N+](=O)[O-])c1 | -7.33%

Row | Structure (SMILES) | hERG current change (%, negative = inhibition) at 10uM
23 | O=C(NCCNc1ccc([N+](=O)[O-])cc1C(F)(F)F)c1cccc(F)c1 | -20.1%
24 | Cc1cc(C)n2nc(C(=O)OCC(=O)Nc3ccc4c(c3)OCO4)nc2n1 | -1.59%
25 | CCCCCCCC1CC(CSc2ncn[nH]2)OC1=O (stereo not shown) | -7.72%
26 | CCCCn1c(SCC(=O)c2ccccc2)nc2ccsc2c1=O | 1.38%
27 | CCOc1ccc(NC(C)=O)cc1 | 0.631%
28 | CC(NCC(O)COCCC12CC3CC(CC(C3)C1)C2)c1ccccc1.Cl (stereo not shown) | -53.8%
29 | CN(Cc1cnccn1)Cc1cn(Cc2ccccc2)nc1-c1ccc2c(c1)OCO2 | -23%
30 | COc1cccc(NC(=O)Cn2c(CCC(=O)O)ccc2-c2ccc(Cl)cc2)c1 | 15.7%
31 | O=C(Cc1ccc([N+](=O)[O-])cc1)N1CCN(Cc2ccc3c(c2)OCO3)CC1 | -45.5%
32 | CCN(C(=O)COC(=O)CC(C)c1ccccc1)c1c(N)n(Cc2ccccc2)c(=O)[nH]c1=O (stereo not shown) | 21.5%
33 | O=[N+]([O-])c1ccc(S(=O)(=O)Nc2nc(-c3ccccc3)cs2)cc1 | -1.39%
34 | O=C(Cn1nc(-c2ccccc2)ccc1=O)NCc1ccc2c(c1)OCO2 | -9.07%
35 | COc1ccccc1NS(=O)(=O)c1cccc(C(=O)N/N=C/c2ccccc2OCC(=O)O)c1 | 12.8%
36 | Cc1ccc2sc(NNC(=O)c3cc(=O)c4ccccc4o3)nc2c1C | 15.2%
37 | Cc1ccc2c(c1)C(c1ccccc1)N(C(=O)c1cccc([N+](=O)[O-])c1)CC(=O)N2 (stereo not shown) | -55.6%
38 | O=C1c2cccc3cccc(c23)C(=O)N1Cc1ccccc1 | 19.4%
39 | CC1CCN(C(=O)C(C)Cl)CC1 (stereo not shown) | 50.6%
40 | O=C(N1CCOCC1)N1c2ccccc2CC(N2CCOCC2)c2ccccc21 (stereo not shown) | 19.9%
41 | CCN(CC)CCNC(=O)c1ccc(NC(=O)Cc2ccsc2)cc1 | 15.6%
42 | Cc1ccc(SCCNC(=S)Nc2ccc(C)cc2C)cc1 | 7.45%
43 | O=C(Nc1ccc(S(=O)(=O)N2CCOCC2)cc1)c1nn(-c2ccc(F)cc2)ccc1=O | -28.3%
44 | CC(C)(C)N(NC(=O)OCc1ccccc1)C(=O)c1ccccc1Cl | -17.5%

Row | Structure (SMILES) | hERG current change (%, negative = inhibition) at 10uM
45 | Nc1cc2c(cc1C(=O)c1ccc(Cl)cc1)OCCO2 | -10.2%
46 | O=S(=O)(c1ccc(NC2CCCCC2)cc1)N1CCOCC1 | -23.7%
47 | COCCNc1nnc(Cc2ccc(Cl)cc2)c(=O)[nH]1 | 23.2%
48 | O=C(/C=C/Sc1ccccc1)c1ccccc1 | 12.6%
49 | CC(=O)c1ccc(N2Cc3ccccc3/C2=N\C(=O)Nc2ccccc2)cc1 | -6.93%
50 | Cc1cccc(C)c1NC(=O)CN(C)C(=O)c1cccc(-n2cccc2)c1 | 2.95%
51 | COc1ccc(-n2c(C)nc3cc(C(=O)NCCN4CCOCC4)ccc32)cc1 | 5.01%
52 | O=C(COC(=O)CCNS(=O)(=O)c1ccccc1)NNC(=O)c1ccccc1 | 19.3%
53 | Cc1nc(SCC(=O)c2c(N)n(C3CC3)c(=O)[nH]c2=O)[nH]c(=O)c1CCO | 17%
54 | CCOC(=O)N1CCC(NC(=O)CS(=O)(=O)Cc2nc(-c3ccc(C)cc3)oc2C)CC1 | -41.7%
55 | OC(CCc1ccncc1)c1ccccc1 (stereo not shown) | 15.5%
56 | Cc1ccc(C(=O)N/C(=C\c2cccc([N+](=O)[O-])c2)C(=O)NC(Cc2ccccc2)C(=O)O)cc1 (stereo not shown) | 15.3%
57 | O=C(NCc1ccc2c(c1)OCO2)c1ccc(C2SCC(=O)N2Cc2ccco2)cc1 (stereo not shown) | -31.9%
58 | COc1ccc(OC)c(/C=N/NC(=O)CSc2cc(C)nc3c(OC)cccc23)c1 | 8.4%
59 | CCNS(=O)(=O)c1ccc(CCC(=O)N2CCC(C)CC2)cc1 | -1.02%
60 | COC(=O)C1=C(C(=O)OC)SC2(S1)C(C(=O)OC)=C(C(=O)OC)SC1=C2c2cc(C)ccc2NC1(C)C | 14.3%
61 | Cc1ccc(C(=O)CSc2nnc(-c3c[nH]c4ccccc34)o2)cc1 | 5.86%
62 | Cc1cc(C)cc(N(C(=O)c2cc3ccccc3oc2=O)C2C=CS(=O)(=O)C2)c1 (stereo not shown) | -55.4%
63 | CN(C)c1c2ccccc2nc2c(F)c(F)c(F)c(F)c12 | 20.4%
64 | O=C(c1ccc2c(c1)OCO2)N1CCN(S(=O)(=O)c2ccc(Cl)cc2)CC1 | -14.9%
65 | Cc1ccc2[nH]cc(CCNC(=O)c3ccco3)c2c1 | 5.43%
66 | O=C(O)c1ccc(CSc2nc(-c3ccc(Cl)cc3)cc(C(F)(F)F)n2)cc1 | 10.1%

Row | Structure (SMILES) | hERG current change (%, negative = inhibition) at 10uM
67 | COc1ccc(OC)c(CNC(=O)C2CCN(S(C)(=O)=O)CC2)c1 | 11.7%
68 | O=C(c1ccc2nccnc2c1)N1CCN(c2ccccc2)CC1 | 6.91%
69 | O=c1cc(/C=C/c2ccccc2)oc2ccccc12 | -7.45%
70 | O=C(CSc1nnc(C2CC2)n1-c1ccccc1)NCCc1ccc(F)cc1 | -42.5%
71 | COc1ccccc1NC(=O)Cc1noc(CSc2cc(C)c3ccccc3n2)n1 | 5.59%
72 | O=C1CNC(=O)/C1=C/c1ccc(Br)cc1 | 16.7%
73 | Cc1ccc(Nc2nc(N3CCOCC3)nc(N3CCOCC3)n2)cc1Cl.Cl | 2.7%
74 | c1ccc(Cn2c(SCc3cn4cccnc4n3)nnc2-c2ccco2)cc1 | -36.6%
75 | CCOC(=O)c1c(CN2CCOCC2)n(-c2ccccc2)c2cc(Br)c(OC)cc12 | 3.27%
76 | O=C(NCC1CCCO1)C(c1ccc(F)cc1)N(CC1CCCO1)C(=O)c1ccc(-c2ccccc2)[nH]1 (stereo not shown) | -43.7%
77 | CC1=NN(C(=O)c2ccc(Cn3nc(C)c([N+](=O)[O-])c3C)o2)C(O)(C(F)(F)F)C1 (stereo not shown) | -52.8%
78 | CCN(CC)S(=O)(=O)c1ccc(NC(=O)CCC2CCCCC2)cc1 | -0.899%
79 | CCOC(=O)CSc1nc(-c2ccccn2)ncc1OC | -0.684%
80 | O=C(COC(=O)/C=C/c1ccc(OC(F)F)cc1)Nc1ccc(S(=O)(=O)N2CCCC2)cc1 | -2.12%
81 | CCC(=O)c1ccc(OCC(=O)Nc2ccccc2N2CCCCC2)cc1 | 10.7%
82 | CCOc1ccc(NC(=O)CN(C)C(=O)Cc2sc(C)nc2-c2ccc(F)cc2)cc1OCC | -21.3%
83 | COc1ccc(S(=O)(=O)N(C(=O)c2ccncc2)c2ccc(OC(=O)c3ccncc3)cc2)cc1 | -16.9%
84 | O=C(NC1CC1)c1ccc(S(=O)(=O)NCC2CCCCC2)cc1 | 11.6%
85 | COc1cccc(Oc2ccc(C(F)(F)F)cc2NC(=O)c2cccc(F)c2)c1 | -4.24%
